# Results taken from the supplement of paper PMC4604168 (melanoma cell lines).
# The list shows a part of the results. Most values come without repeats; read them as rough.
# Tested on: LOXIMVI
# Test: cell count relative to DMSO control; melanoma cells; higher = more viable cells
# Conditions: library dose: low library concentration; 72 h
# 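Also: cell number obtained by counting DAPI-stained nuclei in high-throughput microscope images with image analysis software, screen run in 1,536-well plates.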
row,SMILES,cell count
1,"CS(=O)(=O)CCNCc1ccc(-c2ccc3ncnc(Nc4ccc(OCc5cccc(F)c5)c(Cl)c4)c3c2)o1 [lapatinib] + Oc1cc(-c2nc(-c3ccccc3)[nH]c2-c2ccncc2)ccc1Cl [L779450] (first compound 0.8 µM, partner dose 0.2 µM)",109%
2,"CN1CCN(c2ccc3nc(-c4c(N)c5c(F)cccc5[nH]c4=O)[nH]c3c2)CC1 [Dovitinib] + O=C(O)C(=O)Nc1sc2c(c1C(=O)O)CCNC2 [TCS401] (first compound 0.1 µM, partner dose 1.66667 µM)",108%
3,"C=CCNC1=C2C[C@@H](C)C[C@H](OC)[C@H](O)[C@@H](C)/C=C(\C)[C@H](OC(N)=O)[C@@H](OC)/C=C\C=C(/C)C(=O)NC(=CC1=O)C2=O [Tanespimycin] + COc1ccc(COc2ccc(Cc3cnc(N)nc3N)cc2OC)cc1 [GW2580] (first compound 0.002 µM, partner dose 1 µM)",118%
4,"CNC(=O)c1cc(Oc2ccc(NC(=O)Nc3ccc(Cl)c(C(F)(F)F)c3)cc2)ccn1 [sorafenib] + COc1ccc(-c2ccc3c(N4CCOCC4)nc(N4C[C@@H](C)O[C@@H](C)C4)nc3n2)cc1CO [KU0063794] (first compound 0.4 µM, partner dose 0.02 µM)",106%
5,"CNC(=O)c1cc(Oc2ccc(NC(=O)Nc3ccc(Cl)c(C(F)(F)F)c3)cc2)ccn1 [sorafenib] + COc1ccc2c(c1)CCC1C2CCC2(C)C(NCCCCCCN3C(=O)C=CC3=O)CCC12 [U73122] (first compound 0.4 µM, partner dose 0.4 µM)",68%
6,"C[C@@H](Oc1cc(-c2cnn(C3CCNCC3)c2)cnc1N)c1c(Cl)ccc(F)c1Cl [Crizotinib] + O=c1cc(-c2cccc3c2Sc2ccccc2S3)oc(N2CCOCC2)c1 [KU55933] (first compound 0.2 µM, partner dose 1 µM)",143%
7,"C[C@@H](Oc1cc(-c2cnn(C3CCNCC3)c2)cnc1N)c1c(Cl)ccc(F)c1Cl [Crizotinib] + COC(=O)c1sccc1S(=O)(=O)Nc1ccc(Nc2ccccc2)cc1OC [GSK0660] (first compound 0.2 µM, partner dose 1 µM)",120%
8,"CS(=O)(=O)CCNCc1ccc(-c2ccc3ncnc(Nc4ccc(OCc5cccc(F)c5)c(Cl)c4)c3c2)o1 [lapatinib] + O=C(O)C(=O)Nc1sc2c(c1C(=O)O)CCNC2 [TCS401] (first compound 0.8 µM, partner dose 1.66667 µM)",80.3%
